# Assay results reported in PubChem BioAssay AID540267 (National Center for Advancing Translational Sciences (NCATS), 2011).
# Among all 340,000 compounds or so, about 530 (0.16%) were called active. The shares of active, inactive and inconclusive entries below differ from those in the screen. No stated cut-off is given here; in the data, active means activity change below about -80%; inconclusive means between about -30% and that limit; inactive means weaker than that.
# Assay: Small Molecules that selectively kill Giardia lamblia: qHTS;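 further: parasites exposed to compound for two days anaerobically before the ATP read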
# Settings: Giardia lamblia trophozoite viability; at 7.66 µM; stronger effect = lower value
# Outline: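 Giardia trophozoites, 100 cells per well, were exposed to compounds for 48 hrs at 37 deg C under anaerobic conditions; viability was then read as ATP content by bioluminescence after 15-30 min at room temperature.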
# On the % scale 0 is the no-effect control and ±100 the full control effect.
row,SMILES,activity change
1,CCOC(=O)c1nn(-c2ccc3c(c2)OCCO3)cc1O,inconclusive: -39.8% [inhibitor]
2,CN(CCCC(=O)O)c1ccc(N=Nc2ccc([N+](=O)[O-])cc2)cc1,inconclusive: -33.3% [inhibitor]
3,CN(C(=O)c1cccc(NC(=O)Cc2ccc(NC(=O)C3CCN(C(=O)c4ccccc4)CC3)cc2)c1)C1CC1,inconclusive: -46.8% [inhibitor]
4,CC1=C(C(=O)OC2CCCCC2)C(c2cccc([N+](=O)[O-])c2)NC(=O)N1 (stereo not drawn),inconclusive: -36.3% [inhibitor]
5,O=C(Cc1cccc(NC(=O)C2CCCN(C(=O)C3CCCCC3)C2)c1)Nc1ccc(C(=O)N2CCCCC2)cc1 (stereo not drawn),inconclusive: -30.9% [inhibitor]
6,Cc1nc(SCCc2nc3ccccc3[nH]2)c2oc3ccccc3c2n1,inconclusive: -30.2% [inhibitor]
7,CC1CC(C)C(=NNC(N)=O)C(C(O)CC2CCC(=O)NC2=O)C1 (stereo not drawn),inconclusive: -52.5% [inhibitor]
8,CN(C)C(=O)COC(=O)c1cccc(S(=O)(=O)N2CC3(C)CC2CC(C)(C)C3)c1 (stereo not drawn),inconclusive: -56.5% [inhibitor]
9,CCOC(=O)c1sc(C)c2c1NC1(CCCCC1)NC2=O,inconclusive: -36.4% [inhibitor]
10,Cc1nn(C)c(C(=O)Nc2ccn(Cc3c(F)c(F)cc(F)c3F)n2)c1[N+](=O)[O-],inconclusive: -39.4% [inhibitor]
11,c1ccc(-c2cn3nc(-c4ccccc4)sc3n2)cc1,inconclusive: -52.6% [inhibitor]
12,COn1c(=S)[nH]c2ccccc2c1=O,inactive: -5.2%
13,O=[N+]([O-])c1nn(-c2ccccc2)n(O)c1=NCCc1ccccc1,inconclusive: -73.2% [inhibitor]
14,CN(CCc1ccccc1)C(=O)c1ccc(NC(=O)Cc2cccc(NC(=O)C3CCN(S(=O)(=O)c4cccc([N+](=O)[O-])c4)CC3)c2)cc1,inconclusive: -40.2% [inhibitor]
15,CCOC(=O)CSc1ccc(C(=O)Nc2ccc(OC)cc2)cn1,inactive: -3.33%
16,O=C(c1ccc([N+](=O)[O-])o1)N1CCc2ccccc21,active: -88.1%
17,Cc1ccc(C(=O)NCCNC(=O)c2ccc(F)cc2)cn1,inconclusive: -30.8% [inhibitor]
18,Cc1ccc(-n2ncc3c(=O)[nH]c(SCC(=O)N4CCOCC4)nc32)cc1,inconclusive: -32.5% [inhibitor]
19,Cc1cc2nc(-c3ccc(SCC(=O)Nc4ccc(S(=O)(=O)N5CCCC5)cc4)nc3)[nH]c2cc1C,inconclusive: -41.7% [inhibitor]
20,O=C(NC(=S)Nc1ccccc1[N+](=O)[O-])c1ccccc1Cl,inconclusive: -44.3% [inhibitor]
21,CCOc1ccccc1N1C(=O)CC(N(O)c2ccccc2)C1=O (stereo not drawn),inconclusive: -31.1% [inhibitor]
22,CCOC(=O)C(=CNNc1ccsc1C(=O)OC)C(=O)OCC,inconclusive: -31.6% [inhibitor]
23,CCc1ccc(C(=O)/C=C/c2ccc([N+](=O)[O-])o2)cc1,inconclusive: -78.7% [inhibitor]
24,Cc1noc(C)c1NC(=O)Nc1cccc2c1O[C@@H](CN(C)Cc1ccc3c(c1)OCO3)[C@@H](C)CN([C@H](C)CO)C2=O,inconclusive: -36.3% [inhibitor]

row,SMILES,activity change
1,CC1CCN(C(=S)NCCc2ccccc2)CC1,inactive: -4.14%
2,O=C1NC[C@@H](Cc2cccc3ccccc23)N(CCc2cc(C(F)(F)F)cc(C(F)(F)F)c2)C1=O,inconclusive: -31.9% [inhibitor]
3,Cc1cc(Nc2ccccc2)c2c([N+](=O)[O-])cc(C)c(C)c2n1,inconclusive: -61.1% [inhibitor]
4,Nc1ccc(-c2nc3ccc(N)cc3s2)cc1,inconclusive: -62.4% [inhibitor]
5,O=C(NNc1nc(=O)c2cccnc2s1)c1ccccc1O,inactive: 12.4%
6,CCC1CCCCN1S(=O)(=O)c1ccc(C(=O)Nc2nnc(-c3cccs3)o2)cc1 (stereo not drawn),inconclusive: -34.8% [inhibitor]
7,O=C(NC12CC3CC(CC(C3)C1)C2)c1ccc([N+](=O)[O-])o1,active: -93.2%
8,O=C(NCCSc1ccc(Cl)cc1)c1ccco1,inactive: -4.64%
9,N#CC1=C(SCC(=O)c2ccc(Br)cc2)NC2=C(C(=O)CCC2)C1c1ccco1 (stereo not drawn),inactive: 0.565%
10,O=C(NCCN1CCOCC1)c1csc2c1CCCCC2,inactive: -3.88%
11,O=C1C[C@@H](c2ccc(O[C@@H]3O[C@H](CO)[C@@H](O)[C@H](O)[C@H]3O)cc2)Oc2cc(O)ccc21,inconclusive: -51.6% [inhibitor]
12,Cc1cccnc1NC(=O)CNC(=O)c1ccccc1,inconclusive: -34.5% [inhibitor]
13,CN(C(=O)CSc1nnc(-c2cccnc2)o1)C1CCCCC1,inconclusive: -32.7% [inhibitor]
14,O=C(Cc1cccc(NC(=O)C2CCCN(C(=O)C3CC3)C2)c1)Nc1cccc(C(=O)N2CCCCC2)c1 (stereo not drawn),inconclusive: -42.6% [inhibitor]
15,ON=C1c2cc(OCCN3CCCCC3)ccc2-c2ccc(OCCN3CCCCC3)cc21,inactive: -2.09%
16,Cc1nc2c(o1)C(=O)c1ccccc1C2=Nc1ccccc1,active: -101%
17,O=[N+]([O-])c1ccc(CSc2nnc(-c3cccnc3)o2)cc1,inconclusive: -64.1% [inhibitor]
18,O=C(O)CNC(=S)N(Cc1ccccc1)Cc1ccccc1F,inactive: 11.9%
19,CCNC(=S)NNC(=O)c1cc(C2CC2)nc2ccccc12,inactive: -7.44%
20,COc1ccc(-c2ccnc(-c3ccncc3)n2)cc1,inactive: 10.3%
21,CC(=O)N1N=C(c2ccccc2O)CC1c1cccs1 (stereo not drawn),inconclusive: -34.9% [inhibitor]
22,COc1ccc(C2=CC(=O)C[C@H](c3ccc(OC)c(OC)c3)C2)cn1,inactive: -5.25%
23,COc1ccc(-c2csc3nc(C)nc(N4CCC(C)CC4)c23)cc1OC,inactive: -1.6%
24,O=C(O)CCCCCNS(=O)(=O)c1cccc2c1C(=O)c1ccccc1C2=O,inconclusive: -63.4% [inhibitor]
